Sequences with one replicate were seen in a single cluster, so their values are uncertain.
Tested on: ATP
Experiment: switch fluorescence ratio, 500 uM ATP over buffer (Cy3 cluster intensity, sum of 5 cycles each) (fold (ratio)); higher = stronger signal-on switching upon ATP binding; sequences stand for … in TCGTCGGCAGCGTCAGATGTGTATAAGAGACAGTTTTTTTTTTTTTTTTTTTTTTTTT…TC
Details: aptamer strand: ATP DNA aptamer (quencher-CACCTGGGGGAGTATTGCGGAGGAAGG + anchor), 100 nM annealed; ATP concentration: 500 uM; one replicate
Summary of the method: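 After annealing to 100 nM quencher-labelled ATP aptamer, Cy3-labelled switching-strand clusters on a modified Illumina MiSeq flow-cell were imaged in selection buffer. A second image followed after 15 min with 500 uM ATP at 22 °C, and five such buffer/ATP cycles were done, each separated by NaOH stripping and re-annealing. The fluorescence ratio, averaged per switch-domain sequence, is summed target-cycle over summed buffer-cycle Cy3 intensity per cluster, with clusters outside 100-1000 RFU excluded.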
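Further: ATP exposure 15 min at 22 °C before imaging.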

Sequence | switch fluorescence ratio
ACAATGCTTG | 1.03
GACCCTTTAT | 0.967
CAAGGGTCTA | 1.03
TTTTATCAGT | 1.01
GAAAATGCGC | 0.979
TGGGATGAGC | 1.04
GCCTAATGCA | 1.02
TATCGTTATA | 1.01
GGTTCGCGGA | 1.14
GACGAAGGGT | 1
GTATGATTAG | 1.01
GGGCATAGCG | 1
TGCACAAAGA | 0.966
CACAAGACAC | 1.15
TTGTAGTGGC | 1.06
GTTTGAACAA | 0.981
GGTCACGAGG | 1
GGTATTAGAG | 0.971
TTGAATGGAA | 1
TGTGCGCACC | 1.01
ATGCGGAATT | 0.995
ATCATTGGCA | 0.975
GGGGATCAGA | 1

Sequence | switch fluorescence ratio
ACTGCAGAG | 1
TCGATGGTGA | 1.01
GGCATAGCGG | 1.03
CTGTATGGGC | 0.975
ACAGAGTTAT | 0.997
TAACCGGGTT | 0.98
CGATGATAT | 0.992
GAGTTTCACA | 1.02
GCTGATGATC | 1.02
AGCCACGATA | 1.18
GCTACTTCTC | 1.11
GCCAGGCTGT | 1.03
CTCGTGACTA | 1.02
AATGGTGGAC | 1.01
ACTGAAGTCG | 1.05
GGAAGAGCAG | 0.98
GAAACAGGGT | 0.972
CCATACCAGG | 2.5
GCAAGATTTG | 1
CGACACCGGT | 1.04
CGTTACGGTA | 1.12
CCGCGGCTGA | 1.12
ACACCGTACG | 1.41

Sequence | switch fluorescence ratio
ACTACAGCCA | 1.12
CTTCTCCATG | 1.02
TTGAGTTACG | 1.02
ACTAAGGTGT | 1.27
TAACCACTCA | 1.05
CGGAGGGGTT | 1
ACAATGAAG | 1.02
GCCTAAAGAC | 1.2
CATTCGCGGG | 1.02
GTGCACGGGG | 1.02
CTGTATGTTG | 0.899
AAAATTGAAC | 1.01
CCCTTGCT | 1.07
TCACGGAGCA | 2.43
CCGTGTAAAC | 2.04
TAACGAAATC | 1.19
TCAATAATTT | 0.984
GACGGCCGGC | 1.09
GATTGGCTAC | 1.09
CCCCTTTATG | 1.01
TTTAATTACG | 1.11
GTGAGTGTTG | 0.98
AATCATCAAT | 1.01

Sequence | switch fluorescence ratio
CAGGCCGCTG | 1.08
GCCGGGGGAA | 1.03
TTATCTCCGC | 3.16
ACAAAGTAAT | 1
ATGACAGTAC | 1.49
AATTCGGGGA | 1.02
TGTGCACGAA | 1.04
CTGGGTGAGA | 1.04
ATAGTGAGC | 1.02
CCGAAAGATG | 1.13
TGTGGATATA | 1.01
AAATTTATGG | 1.01
GTGGACTATG | 0.974
AGGGGATGGT | 0.944
AGGCGATGCA | 0.995
ATACGTTCGT | 1.01
TCTGAAAGTT | 0.989
AATACGCTTT | 1.06
CTCATCACCG | 1.03
ATACTATCA | 1.05
CGGGACCGCT | 0.996
CCCATAGGGG | 1.06
TTAGAAATT | 1.03

Sequence | switch fluorescence ratio
TTCGGCCTAA | 1
GAGTAAGGTT | 0.98
TCAGACGAGG | 1.01
GTGGAGAGAG | 0.957
TGAAGGCA | 1.06
TTAAAGATCG | 1.07
TACCAAGGCG | 0.991
AAGCGGTTTG | 0.993
CGTGTTTTC | 1.04
CGGCTTCATA | 0.999
TGCTGAAAGG | 0.953
CGAGTAAAGC | 0.948
ATATATAACT | 1.01
TGGACCATA | 1.06
GCCGGGGATT | 1.11
GGCCCTGGCG | 1.02
ACAGCTTAGA | 1.01
AATCTACACG | 1.09
ATATTCACTA | 0.974
GGCGTATCTT | 0.988
TGACAGTTGT | 1.03
GGTGAGGCGA | 1.07
GGTCACAAAG | 0.969

Sequence | switch fluorescence ratio
TTGTAGAGTC | 1.05
GGGTGTGGAA | 1
GAGCATGTGA | 1.02
TTTTAGTCCT | 1.01
GTTACACATT | 1.03
CGCCACCAAG | 1.17
CGAGGTAGTA | 1.01
TACGCGGTTC | 1.11
GGTATCGATT | 0.987
AAAGGGGTGT | 1.02
CATTCTAAGA | 1
AGGGCAGTGC | 1.06
GTCAGTGTTT | 0.99
AGCACAGACG | 1.16
AGGTTGTTAC | 1.15
GGGCCTACGG | 1.02
CAGGGGAACG | 1.02
ATGCCCTTAT | 0.974
TTAGGAAAAA | 0.982
AGAGCAGCCG | 0.983
GTCTAATGGC | 1.04
AAACCAGACT | 1.45
GCTTGGGCGC | 0.939

Sequence | switch fluorescence ratio
CGAGACTGGG | 1.01
TGCCGACAAT | 1.03
ATAGGGAAGA | 1.07
CGTTTCTGTC | 1.01
CATGTTGAAC | 1.02
AGGTCGAGTA | 1.01
CTCTCGGGTT | 0.964
AGAGACAGGA | 0.986
AATCTTACTT | 0.973
CGCTTGCACG | 0.993
AAGGGTGTCC | 0.974
TCGTGCGTTT | 0.993
TTCCATTGAT | 0.98
AATGTGCGCG | 0.994
AAAAGATCTG | 0.988
TGGATCTTA | 1
GTTTTACATG | 1.01
CCCCTAGAAT | 0.964
TGGGGCATAT | 1.02
